We go through two compounds from PubChem BioAssay (NCI).

For this assay, the system named is NCI-H322M lung. Briefly: DTP human tumour cell line panel, 48 h.

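Growth conditions: 96-well plates. Treatment: test compound, 48 hours, 5 concentrations. Analysis: linear interpolation between bracketing concentrations; unreached endpoints set to highest concentration. GI50: concentration for 50% inhibition of growth. TGI denotes the concentration required for complete inhibition of growth.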

As to `COc1ccc2[nH]cc(/C=N/Nc3ccnc4cc(Cl)ccc34)c2c1`, the GI50 (usually the concentration at which growth is held to half of that of the control) is 1560 nM and the TGI (usually the concentration giving total growth inhibition) came out at 2910 nM.
Regarding `OC1CCN(CCCOc2c3ccccc3nc3c2oc2ccccc23)CC1`, the GI50 was 2230 nM and the TGI came out at 10600 nM.
